Laboratory results: patent US20210186947A1, “TOMM6-INTERACTING EXTRACTS AND COMPOUNDS FOR USE IN THE TREATMENT AND PROPHYLAXIS OF NERVOUS SYSTEM DISEASES, ATHEROSCLEROSIS, HEPATITIS B INFECTION AND HUMAN PAPILLOMA VIRUS (HPV) INFECTION” (ETH ZURICH, priority 2018, published 2021)

Conditions: mouse, in vivo, po, 100 mg/kg/day

Cc1cc(O)c2c(c1)C(=O)c1cc(O)cc(O)c1C2=O [emodin, 6-methyl-1,3,8 trihydroxyanthrachinone, reference compound]
daily food intake / food consumption: lower compared to untreated B6 control mice
